{"source": "the supplement of paper PMC3334620", "note": "The full ranking holds about 33,000 sequences; the median of “E-score (-0.5 to 0.5)” is about -0.01, and the highest 2% start at about 0.26. The list shows a part of the results.", "data": [{"target": "Ste12 (UniProt P13574)", "assay": "PBM E-score (8-mer binding enrichment) (E-score (-0.5 to 0.5)); higher = stronger / more preferred TF binding; most listed sequences are background and not binding sites", "settings": "protein concentration: 200 nM; construct: GST-DNA-binding domain", "method_in_brief": "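PURExpress in vitro transcription/translation supplied GST-tagged yeast transcription factors, either full-length or DNA-binding domain. Applied at about 100-200 nM to universal all-10-mer Agilent arrays double-stranded by primer extension, the bound protein was detected with fluorescent anti-GST. E-scores, modified Wilcoxon-Mann-Whitney statistics, were given by the Universal PBM Analysis Suite to ungapped eight-base words pooled with their reverse complements after masliner normalisation.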", "values": [{"sequence": "AGCCGGTG", "PBM E-score": 0.0856}, {"sequence": "AAGCATGT", "PBM E-score": -0.0917}, {"sequence": "GATAAAGC", "PBM E-score": -0.0494}, {"sequence": "CAGCGGTC", "PBM E-score": -0.0855}, {"sequence": "ACTTCCGG", "PBM E-score": 0.0582}, {"sequence": "ACCTGAAA", "PBM E-score": 0.257}, {"sequence": "AAGGGAGC", "PBM E-score": -0.0506}, {"sequence": "CCGGATCC", "PBM E-score": -0.135}, {"sequence": "CCCAGTCA", "PBM E-score": -0.15}, {"sequence": "ATTACTGG", "PBM E-score": -0.136}, {"sequence": "ACTATGTG", "PBM E-score": -0.0623}, {"sequence": "ACCTGACA", "PBM E-score": 0.144}, {"sequence": "GGGTGTAC", "PBM E-score": -0.123}, {"sequence": "AGTACATG", "PBM E-score": 0.0712}, {"sequence": "GTAGTCGA", "PBM E-score": -0.148}, {"sequence": "GACACTGC", "PBM E-score": -0.0993}, {"sequence": "CCATAACC", "PBM E-score": 0.00458}, {"sequence": "TCGTCGCA", "PBM E-score": 0.03}, {"sequence": "GAGCTGCC", "PBM E-score": -0.218}, {"sequence": "CGGAAAGA", "PBM E-score": 0.142}, {"sequence": "CCAAACTA", "PBM E-score": 0.0603}, {"sequence": "AACGAACT", "PBM E-score": -0.204}, {"sequence": "AAGGAGCA", "PBM E-score": -0.017}, {"sequence": "CACAATCC", "PBM E-score": 0.05}, {"sequence": "CTCGACAG", "PBM E-score": -0.0552}, {"sequence": "ACTCACGA", "PBM E-score": -0.213}, {"sequence": "ATTTTTAG", "PBM E-score": 0.175}, {"sequence": "CTGGTGTC", "PBM E-score": -0.113}, {"sequence": "AATCTCAT", "PBM E-score": 0.165}, {"sequence": "CTAGGGGA", "PBM E-score": -0.303}, {"sequence": "CAGTCACA", "PBM E-score": 0.0168}, {"sequence": "TATTACAA", "PBM E-score": 0.173}, {"sequence": "ACAACGAG", "PBM E-score": -0.00789}, {"sequence": "ATGCGGTA", "PBM E-score": 0.133}, {"sequence": "CCGTCTGC", "PBM E-score": -0.147}, {"sequence": "AAATGTCG", "PBM E-score": -0.0494}, {"sequence": "AGCCAAAT", "PBM E-score": 0.116}, {"sequence": "AGCCAGGC", "PBM E-score": -0.18}, {"sequence": "TAGAACTA", "PBM E-score": -0.136}, {"sequence": "CGGCAATA", "PBM E-score": 0.105}, {"sequence": "CCTACGTA", "PBM E-score": -0.121}, {"sequence": "CTGGATCA", "PBM E-score": -0.0476}, {"sequence": "AAATGGCG", "PBM E-score": 0.0543}, {"sequence": "CGAATTCA", "PBM E-score": -0.0287}, {"sequence": "AGCAACGG", "PBM E-score": -0.0322}, {"sequence": "TGATCACA", "PBM E-score": -0.0662}, {"sequence": "AGCAATGA", "PBM E-score": -0.0773}, {"sequence": "GGAGTTCA", "PBM E-score": -0.0335}, {"sequence": "ACGATAGT", "PBM E-score": 0.0548}, {"sequence": "CTGGGGGC", "PBM E-score": -0.233}, {"sequence": "ATCGGTTG", "PBM E-score": -0.0931}, {"sequence": "ATGAGGCG", "PBM E-score": -0.0853}, {"sequence": "ACATTACA", "PBM E-score": 0.142}, {"sequence": "ACCAGTAA", "PBM E-score": 0.0343}, {"sequence": "AAAGGCCA", "PBM E-score": -0.0459}, {"sequence": "AGCAACGC", "PBM E-score": -0.0943}, {"sequence": "ATAAGAAT", "PBM E-score": 0.187}, {"sequence": "ATACGACA", "PBM E-score": -0.00383}, {"sequence": "AATTAACC", "PBM E-score": 0.193}, {"sequence": "CATAGAGC", "PBM E-score": -0.14}, {"sequence": "AATGCACC", "PBM E-score": -0.0756}, {"sequence": "CTGGAAGC", "PBM E-score": -0.222}, {"sequence": "AAAGCTAT", "PBM E-score": 0.0353}, {"sequence": "GAGGTTCC", "PBM E-score": -0.143}, {"sequence": "CCTCTTGC", "PBM E-score": 0.0254}, {"sequence": "CTGAGGTC", "PBM E-score": -0.199}, {"sequence": "CAAGTGAC", "PBM E-score": -0.0247}, {"sequence": "CTGGGTTA", "PBM E-score": -0.0643}, {"sequence": "ACCCGGTA", "PBM E-score": 0.0644}, {"sequence": "TGCTTGAA", "PBM E-score": 0.103}, {"sequence": "GAACGCCA", "PBM E-score": -0.0811}, {"sequence": "ACTGACTC", "PBM E-score": -0.0849}, {"sequence": "GATCCATA", "PBM E-score": 0.0894}, {"sequence": "CATTGTGA", "PBM E-score": -0.046}, {"sequence": "ACGGAGGA", "PBM E-score": -0.0906}, {"sequence": "CCACATTA", "PBM E-score": 0.0273}, {"sequence": "CGCGAGTA", "PBM E-score": 0.136}, {"sequence": "AACGACGG", "PBM E-score": 0.0713}, {"sequence": "CCTCGGGC", "PBM E-score": -0.045}, {"sequence": "CTCACCTC", "PBM E-score": 0.126}, {"sequence": "CTCCCCCA", "PBM E-score": -0.00505}, {"sequence": "CCAGGGGC", "PBM E-score": -0.229}, {"sequence": "ATCTGCTG", "PBM E-score": -0.292}, {"sequence": "ATATGCGA", "PBM E-score": 0.11}, {"sequence": "GCGAACAC", "PBM E-score": -0.265}, {"sequence": "TAACTCAA", "PBM E-score": 0.123}, {"sequence": "CCTTGCAG", "PBM E-score": -0.338}, {"sequence": "GATGACAA", "PBM E-score": 0.00288}, {"sequence": "AGGCGCTC", "PBM E-score": -0.194}, {"sequence": "GGCCTCAC", "PBM E-score": -0.128}, {"sequence": "AAACTGTG", "PBM E-score": 0.223}, {"sequence": "CTTTCAGA", "PBM E-score": 0.211}, {"sequence": "AAGGCTGC", "PBM E-score": 0.0866}, {"sequence": "TGCAGACA", "PBM E-score": -0.147}]}]}
